The chains are these.
B1: LZTS1, Q9Y250 (protein)
chain: MGSVSSLISGHSFHSKHCRASQYKLRKSSHLKKLNRYSDGLLRFGFSQDSGHGKSSSKMGKSEDFFYIKVSQKARGSHHPDYTALSSGDLGGQAGVDFDPSTPPKLMPFSNQLEMGSEKGAVRPTAFKPVLPRSGAILHSSPESASHQLHPAPPDKPKEQELKPGLCSGALSDSGRNSMSSLPTHSTSSSYQLDPLVTPVGPTSRFGGSAHNITQGIVLQDSNMMSLKALSFSDGGSKLGHSNKADKGPSCVRSPISTDECSIQELEQKLLEREGALQKLQRSFEEKELASSLAYEERPRRCRDELEGPEPKGGNKLKQASQKSQRAQQVLHLQVLQLQQEKRQLRQELESLMKEQDLLETKLRSYEREKTSFGPALEETQWEVCQKSGEISLLKQQLKESQTEVNAKASEILGLKAQLKDTRGKLEGLELRTQDLEGALRTKGLELEVCENELQRKKNEAELLREKVNLLEQELQELRAQAALARDMGPPTFPEDVPALQRELERLRAELREERQGHDQMSSGFQHERLVWKEEKEKVIQYQKQLQQSYVAMYQRNQRLEKALQQLARGDSAGEPLEVDLEGADIPYEDIIATEI
B2: LTF, P02788 (protein)
chain: MKLVFLVLLFLGALGLCLAGRRRSVQWCAVSQPEATKCFQWQRNMRKVRGPPVSCIKRDSPIQCIQAIAENRADAVTLDGGFIYEAGLAPYKLRPVAAEVYGTERQPRTHYYAVAVVKKGGSFQLNELQGLKSCHTGLRRTAGWNVPIGTLRPFLNWTGPPEPIEAAVARFFSASCVPGADKGQFPNLCRLCAGTGENKCAFSSQEPYFSYSGAFKCLRDGAGDVAFIRESTVFEDLSDEAERDEYELLCPDNTRKPVDKFKDCHLARVPSHAVVARSVNGKEDAIWNLLRQAQEKFGKDKSPKFQLFGSPSGQKDLLFKDSAIGFSRVPPRIDSGLYLGSGYFTAIQNLRKSEEEVAARRARVVWCAVGEQELRKCNQWSGLSEGSVTCSSASTTEDCIALVLKGEADAMSLDGGYVYTAGKCGLVPVLAENYKSQQSSDPDPNCVDRPVEGYLAVAVVRRSDTSLTWNSVKGKKSCHTAVDRTAGWNIPMGLLFNQTGSCKFDEYFSQSCAPGSDPRSNLCALCIGDEQGENKCVPNSNERYYGYTGAFRCLAENAGDVAFVKDVTVLQNTDGNNNEAWAKDLKLADFALLCLDGKRKPVTEARSCHLAMAPNHAVVSRMDKVERLKQVLLHQQAKFGRNGSDCPDKFCLFQSETKNLLFNDNTECLARLHGKTTYEKYLGPQYVAGITNLKKCSTSPLLEACEFLRK
B3: ZBTB25, P24278 (protein)
chain: MDTASHSLVLLQQLNMQREFGFLCDCTVAIGDVYFKAHRAVLAAFSNYFKMIFIHQTSECIKIQPTDIQPDIFSYLLHIMYTGKGPKQIVDHSRLEEGIRFLHADYLSHIATEMNQVFSPETVQSSNLYGIQISTTQKTVVKQGLEVKEAPSSNSGNRAAVQGDHPQLQLSLAIGLDDGTADQQRACPATQALEEHQKPPVSIKQERCDPESVISQSHPSPSSEVTGPTFTENSVKIHLCHYCGERFDSRSNLRQHLHTHVSGSLPFGVPASILESNDLGEVHPLNENSEALECRRLSSFIVKENEQQPDHTNRGTTEPLQISQVSLISKDTEPVELNCNFSFSRKRKMSCTICGHKFPRKSQLLEHMYTHKGKSYRYNRCQRFGNALAQRFQPYCDSWSDVSLKSSRLSQEHLDLPCALESELTQENVDTILVE
B4: FOXN2, P32314 (protein)
chain: MGPVIGMTPDKRAETPGAEKIAGLSQIYKMGSLPEAVDAARPKATLVDSESADDELTNLNWLHESTNLLTNFSLGSEGLPIVSPLYDIEGDDVPSFGPACYQNPEKKSATSKPPYSFSLLIYMAIEHSPNKCLPVKEIYSWILDHFPYFATAPTGWKNSVRHNLSLNKCFQKVERSHGKVNGKGSLWCVDPEYKPNLIQALKKQPFSSASSQNGSLSPHYLSSVIKQNQVRNLKESDIDAAAAMMLLNTSIEQGILECEKPLPLKTALQKKRSYGNAFHHPSAVRLQESDSLATSIDPKEDHNYSASSMAAQRCASRSSVSSLSSVDEVYEFIPKNSHVGSDGSEGFHSEEDTDVDYEDDPLGDSGYASQPCAKISEKGQSGKKMRKQTCQEIDEELKEAAGSLLHLAGIRTCLGSLISTAKTQNQKQRKK
B5: NPAS2, Q99743 (protein)
chain: MDEDEKDRAKRASRNKSEKKRRDQFNVLIKELSSMLPGNTRKMDKTTVLEKVIGFLQKHNEVSAQTEICDIQQDWKPSFLSNEEFTQLMLEALDGFIIAVTTDGSIIYVSDSITPLLGHLPSDVMDQNLLNFLPEQEHSEVYKILSSHMLVTDSPSPEYLKSDSDLEFYCHLLRGSLNPKEFPTYEYIKFVGNFRSYNNVPSPSCNGFDNTLSRPCRVPLGKEVCFIATVRLATPQFLKEMCIVDEPLEEFTSRHSLEWKFLFLDHRAPPIIGYLPFEVLGTSGYDYYHIDDLELLARCHQHLMQFGKGKSCCYRFLTKGQQWIWLQTHYYITYHQWNSKPEFIVCTHSVVSYADVRVERRQELALEDPPSEALHSSALKDKGSSLEPRQHFNTLDVGASGLNTSHSPSASSRSSHKSSHTAMSEPTSTPTKLMAEASTPALPRSATLPQELPVPGLSQAATMPAPLPSPSSCDLTQQLLPQTVLQSTPAPMAQFSAQFSMFQTIKDQLEQRTRILQANIRWQQEELHKIQEQLCLVQDSNVQMFLQQPAVSLSFSSTQRPEAQQQLQQRSAAVTQPQLGAGPQLPGQISSAQVTSQHLLRESSVISTQGPKPMRSSQLMQSSGRSGSSLVSPFSSATAALPPSLNLTTPASTSQDASQCQPSPDFSHDRQLRLLLSQPIQPMMPGSCDARQPSEVSRTGRQVKYAQSQTVFQNPDAHPANSSSAPMPVLLMGQAVLHPSFPASQPSPLQPAQARQQPPQHYLQVQAPTSLHSEQQDSLLLSTYSQQPGTLGYPQPPPAQPQPLRPPRRVSSLSESSGLQQPPR
B6: SFRP4, Q6FHJ7 (protein)
chain: MFLSILVALCLWLHLALGVRGAPCEAVRIPMCRHMPWNITRMPNHLHHSTQENAILAIEQYEELVDVNCSAVLRFFLCAMYAPICTLEFLHDPIKPCKSVCQRARDDCEPLMKMYNHSWPESLACDELPVYDRGVCISPEAIVTDLPEDVKWIDITPDMMVQERPLDVDCKRLSPDRCKCKKVKPTLATYLSKNYSYVIHAKIKAVQRSGCNEVTTVVDVKEIFKSSSPIPRTQVPLITNSSCQCPHILPHQDVLIMCYEWRSRMMLLENCLVEKWRDQLSKRSIQWEERLQEQRRTVQDKKKTAGRTSRSNPPKPKGKPPAPKPASPKKNIKTRSAQKRTNPKRV
B7: PRDM5, Q9NQX1 (protein)
chain: MLGMYVPDRFSLKSSRVQDGMGLYTARRVRKGEKFGPFAGEKRMPEDLDENMDYRLMWEVRGSKGEVLYILDATNPRHSNWLRFVHEAPSQEQKNLAAIQEGENIFYLAVEDIETDTELLIGYLDSDMEAEEEEQQIMTVIKEGEVENSRRQSTAGRKDRLGCKEDYACPQCESSFTSEDILAEHLQTLHQKPTEEKEFKCKNCGKKFPVKQALQRHVLQCTAKSSLKESSRSFQCSVCNSSFSSASSFEQHQETCRGDARFVCKADSCGKRLKSKDALKRHQENVHTGDPKKKLICSVCNKKCSSASSLQEHRKIHEIFDCQECMKKFISANQLKRHMITHSEKRPYNCEICNKSFKRLDQVGAHKVIHSEDKPYKCKLCGKGFAHRNVYKNHKKTHSEERPFQCEECKALFRTPFSLQRHLLIHNSERTFKCHHCDATFKRKDTLNVHVQVVHERHKKYRCELCNKAFVTPSVLRSHKKTHTGEKEKICPYCGQKFASSGTLRVHIRSHTGERPYQCPYCEKGFSKNDGLKMHIRTHTREKPYKCSECSKAFSQKRGLDEHKRTHTGEKPFQCDVCDLAFSLKKMLIRHKMTHNPNRPLAECQFCHKKFTRNDYLKVHMDNIHGVADS
B8: TRIM8, Q9BZR9 (protein)
chain: MAENWKNCFEEELICPICLHVFVEPVQLPCKHNFCRGCIGEAWAKDSGLVRCPECNQAYNQKPGLEKNLKLTNIVEKFNALHVEKPPAALHCVFCRRGPPLPAQKVCLRCEAPCCQSHVQTHLQQPSTARGHLLVEADDVRAWSCPQHNAYRLYHCEAEQVAVCQYCCYYSGAHQGHSVCDVEIRRNEIRKMLMKQQDRLEEREQDIEDQLYKLESDKRLVEEKVNQLKEEVRLQYEKLHQLLDEDLRQTVEVLDKAQAKFCSENAAQALHLGERMQEAKKLLGSLQLLFDKTEDVSFMKNTKSVKILMDRTQTCTSSSLSPTKIGHLNSKLFLNEVAKKEKQLRKMLEGPFSTPVPFLQSVPLYPCGVSSSGAEKRKHSTAFPEASFLETSSGPVGGQYGAAGTASGEGQSGQPLGPCSSTQHLVALPGGAQPVHSSPVFPPSQYPNGSAAQQPMLPQYGGRKILVCSVDNCYCSSVANHGGHQPYPRSGHFPWTVPSQEYSHPLPPTPSVPQSLPSLAVRDWLDASQQPGHQDFYRVYGQPSTKHYVTS
B9: ZNF444, Q8N0Y2 (protein)
chain: MEVAVPVKQEAEGLALDSPWHRFRRFHLGDAPGPREALGLLRALCRDWLRPEVHTKEQMLELLVLEQFLSALPADTQAWVCSRQPQSGEEAVALLEELWGPAASPDGSSATRVPQDVTQGPGATGGKEDSGMIPLAGTAPGAEGPAPGDSQAVRPYKQEPSSPPLAPGLPAFLAAPGTTSCPECGKTSLKPAHLLRHRQSHSGEKPHACPECGKAFRRKEHLRRHRDTHPGSPGSPGPALRPLPAREKPHACCECGKTFYWREHLVRHRKTHSGARPFACWECGKGFGRREHVLRHQRIHGRAAASAQGAVAPGPDGGGPFPPWPLG

Some of the results follow. Binding of human transcription factors and regulators to the viral nucleoprotein by AlphaScreen, crude cell-free proteins, amounts not normalised, one pass. Fold of the Venus control; higher = more signal. No active / inactive call. Single-pass screen; sequences are the whole Swiss-Prot entries looked up by name.

The assay concerns the target nucleoprotein N of Crimean-Congo hemorrhagic fever virus. Nature of the assay: AlphaScreen luminescence signal relative to Venus negative control (fold); higher = stronger binding to CCHFV N. The method, then:
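AlphaScreen binding of cell-free made, FLAG-GST-tagged human transcription factors and regulators (crude translation products) to biotinylated N protein; signal as fold of the FLAG-GST-Venus control. One pass.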
On the technique in general: In Alpha technology, singlet oxygen from a donor bead excites a nearby acceptor bead.
With B1, the AlphaScreen luminescence signal stood at 1.49.

In the case of B2, the AlphaScreen luminescence signal amounted to 2.88.

The molecule B3 returned an AlphaScreen luminescence signal of 1.91.

B4 registered an AlphaScreen luminescence signal of 2.6.

In the case of B5, the AlphaScreen luminescence signal stood at 1.77.

In turn, B6 showed an AlphaScreen luminescence signal of 6.09.

B7 yielded an AlphaScreen luminescence signal of 3.44.

Regarding B8, the AlphaScreen luminescence signal was 1.63.

As for B9, the AlphaScreen luminescence signal stood at 2.19.

Values taken from the supplement of paper PMC12423691.
